Among all 280,000 compounds or so, about 100 (0.036%) were called active. This list was built around the results that the source calls inconclusive (neither active nor inactive); the mix of calls is not that of the screen. Calls follow the shape of the dose curve; as a rule, active = well fitted inhibition curve with a large enough effect in the signal ratio, with a control signal flat (not every such curve was filed as active); inconclusive = small, poorly fitted or top-dose-only effect, or effect the other way, or a change in a side signal; inactive = no such curve, though single readings can be large or run the other way; the % refers to the signal ratio. A potency beside an inconclusive call is a rough fit, not a confirmed value. A note “side channel” means that the fit belongs to a control or component signal, not to the main read-out.
The compounds below were run against Muscleblind-like protein 1 (Homo sapiens) (UniProt Q9NR56) (assay: qHTS Assay for Inhibitors of MBNL1-poly(CUG) RNA binding). Details: TR-FRET MBNL1-His/biotin-(CUG)12 binding, 665/545 ratio; series mostly up to 57.5 µM.
UniProt Q9NR56, sequence (Q9NR56 whole entry, looked up): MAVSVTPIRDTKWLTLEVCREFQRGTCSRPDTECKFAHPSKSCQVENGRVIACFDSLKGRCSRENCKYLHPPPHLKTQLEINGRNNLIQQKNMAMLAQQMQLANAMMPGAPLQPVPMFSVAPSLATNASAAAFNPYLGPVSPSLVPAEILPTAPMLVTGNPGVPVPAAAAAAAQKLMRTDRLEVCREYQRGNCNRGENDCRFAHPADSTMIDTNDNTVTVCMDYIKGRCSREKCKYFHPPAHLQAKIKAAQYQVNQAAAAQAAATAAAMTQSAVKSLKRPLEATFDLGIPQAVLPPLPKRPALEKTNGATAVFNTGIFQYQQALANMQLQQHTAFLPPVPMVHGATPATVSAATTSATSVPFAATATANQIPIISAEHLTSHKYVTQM
Procedure, shortened: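 Inhibition of protein-RNA binding appears as loss of TR-FRET between terbium anti-His antibody on MBNL1-His and streptavidin-XL665 on biotin-(CUG)12. Activity is normalized to buffer-only and uninhibited-complex controls.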
For Cc1c(C(=O)N(CCc2ccccc2)Cc2ccccc2)cccc1[N+](=O)[O-], the Potency was “inactive”. In the case of CS(=O)(=O)N(CC(=O)Nc1cccc([N+](=O)[O-])c1)c1ccccc1, the Potency is reported as inconclusive: 22.4 µM [quencher, side channel, partial curve]. Cc1ccc(C(=O)/C=C/Nc2cccc([N+](=O)[O-])c2)o1 was tested, and the Potency was inconclusive: 25.1 µM [quencher, side channel, partial curve, poor fit]. c1ccc(-n2nnnc2SCc2cccc3nsnc23)cc1 was tested, and the Potency was inconclusive: 12.6 µM [quencher, side channel, partial curve]. CN(C)/C=C/c1[nH]c(=O)[nH]c(=O)c1[N+](=O)[O-] was tested, and the Potency was inconclusive: 28.2 µM [quencher, side channel, single point]. In the case of COc1cc(/C=C2\SC(N3CCC(C)CC3)=NC2=O)ccc1O, the Potency is reported as inconclusive: 15.8 µM [quencher, side channel, partial curve]. O=C(Nc1ccc(N2CCCC(O)C2)cc1)c1snc2c(=O)[nH]cnc12 (centres undefined) was tested, and the Potency was inconclusive: 2.24 µM [quencher, side channel, full curve]. CCOC(=O)Cn1nc(/C=C/c2ccccc2)ccc1=O was tested, and the Potency was inconclusive: 28.2 µM [quencher, side channel, partial curve]. With Cc1c(C(=O)OC(C)C)[nH]c2c1C(=O)CCC2 the Potency was inconclusive: 0.794 µM [fluorescent, side channel, single point]. In the case of O=[N+]([O-])c1ccc(S(=O)(=O)N(CC(O)CN2CCCCC2)c2ccccc2)cc1 (centres undefined), the Potency is reported as inconclusive: 11.2 µM [quencher, partial curve]. Cn1ccnc1C(=O)c1ccc(NN)c([N+](=O)[O-])c1 was tested, and the Potency was inconclusive: 14.1 µM [quencher, side channel, partial curve]. With CC(/C=N/NC(=O)c1ccncc1)=C\c1ccccc1 the Potency was inconclusive: 11.2 µM [quencher, side channel, partial curve]. For CCCCCn1c(-c2ccco2)nc2nc3ccccc3nc21, the Potency was inconclusive: 25.1 µM [quencher, side channel, partial curve]. In the case of OCCC1CN(CCCc2ccccc2)CCN1Cc1ccc(F)cc1 (centres undefined), the Potency is reported as “inactive”. With O=C(CCc1ccccc1)N/N=C/c1cccc([N+](=O)[O-])c1 the Potency was inconclusive: 28.2 µM [quencher, side channel, partial curve]. For NC(=S)c1cc2ccc(O)cc2oc1=O, the Potency was inconclusive: 25.1 µM [quencher, side channel, partial curve]. In the case of CCCNC(=O)c1oc2ccc3c(c2c1C)C(=O)CC(C)(C)O3, the Potency is reported as inconclusive: 17.8 µM [quencher, side channel, partial curve]. O=[N+]([O-])c1ccc(C(O)CNC(=S)Nc2ccccc2)cc1 (centres undefined) was tested, and the Potency was inconclusive: 31.6 µM [quencher, side channel, single point]. CCOc1ccc2ccccc2c1/C=N/NC(=O)CC1(C)OCCCO1 was tested, and the Potency was inconclusive: 20 µM [quencher, partial curve]. With O=[N+]([O-])c1ccc(/C=N/Nc2nc(N3CCCC3)nc(N3CCCC3)n2)o1 the Potency was inconclusive: 12.6 µM [quencher, side channel, partial curve]. COC(=O)/C=C/c1cnc2ccccc2c1 was tested, and the Potency was inconclusive: 10 µM [quencher, side channel, partial curve]. With COc1cc(C(=O)NCC(=O)N/N=C\C(C)=C/c2ccccc2)cc(OC)c1OC the Potency was inconclusive: 28.2 µM [quencher, side channel, single point]. COc1ccc(-[n+]2c(C)cc(/C=C3\Sc4ccccc4N3C)cc2C)cc1 was tested, and the Potency was inconclusive: 39.8 µM [quencher, single point]. O=C(Nc1nccs1)c1sc2ccccc2c1Cl was tested, and the Potency was inconclusive: 3.55 µM [quencher, side channel, single point]. For C=CCN(CC=C)C(=O)C[n+]1ccc(C(N)=O)cc1, the Potency was inconclusive: 22.4 µM [quencher, side channel, single point]. With S=C(NCc1ccco1)Nc1cc(Cl)c(Cl)cc1Cl the Potency was inconclusive: 39.8 µM [fluorescent, side channel, partial curve]. In the case of CCN1C(=O)c2cccc3c(S(=O)(=O)Nc4ccccc4OC)ccc1c23, the Potency is reported as inconclusive: 14.1 µM [quencher, side channel, partial curve]. In the case of Cc1ccc2c(c1)nnc1nnc(SCC(=O)O)n12, the Potency is reported as inconclusive: 3.98 µM [quencher, side channel, full curve]. COc1cc2c(cc1NC(=O)Nc1ccccc1)oc1ccccc12 was tested, and the Potency was “inactive”. With CN(C)c1c([N+](=O)[O-])cc2[nH]c(=O)[nH]c2c1[N+](=O)[O-] the Potency was inconclusive: 11.2 µM [quencher, side channel, partial curve]. In the case of CC(=O)N1CCN(CC(=O)O)CC1, the Potency is reported as “inactive”. With Cc1ccc(-c2nc3ncccn3c2Nc2ccc3c(c2)OCO3)o1 the Potency was inconclusive: 28.2 µM [quencher, side channel, single point]. With COc1ccc(-c2onc3ccc(C(=O)/C=C/N(C)C)cc23)cc1 the Potency was inconclusive: 31.6 µM [quencher, side channel, single point]. With COc1ccc(CCn2c(N)c(C(=O)NCc3ccco3)c3nc4ccccc4nc32)cc1OC the Potency was inconclusive: 5.01 µM [quencher, side channel, full curve, poor fit]. CCOc1ccc(S(=O)(=O)N(CC(=O)NCC(F)(F)F)Cc2ccco2)cc1 was tested, and the Potency was inconclusive: 22.4 µM [fluorescent, side channel, partial curve]. With CCOCCCNC(=O)c1ccc2nc(-c3ccc(OC)c(OC)c3)c(-c3ccc(OC)c(OC)c3)nc2c1 the Potency was inconclusive: 14.1 µM [quencher, side channel, partial curve]. With Cc1ccccc1C(=O)N1CCN(c2ccc(NC(=O)c3ccc([N+](=O)[O-])o3)cc2)CC1 the Potency was inconclusive: 1.41 µM [quencher, side channel, full curve]. Cc1ccsc1/C=N\Nc1cn[nH]c(=O)c1Cl was tested, and the Potency was inconclusive: 14.1 µM [quencher, side channel, partial curve]. In the case of CCCCOc1ccc(C2CC(=O)N(C)C2=O)cc1 (centres undefined), the Potency is reported as inconclusive: 7.08 µM [quencher, side channel, single point]. For COC(=O)c1ccc(COC(=O)c2ccccc2OC)cc1, the Potency was inconclusive: 0.282 µM [fluorescent, side channel, full curve, poor fit]. With CC1CCCCC1NC(=O)c1cncc(Br)c1 (centres undefined) the Potency was “inactive”. For S=c1[nH]nc(-c2ccc3ccccc3n2)n1-c1ccc2ncccc2c1, the Potency was inconclusive: 2.51 µM [quencher, side channel, single point]. With C/C(=N\NC(=O)c1cnccn1)c1ccc([N+](=O)[O-])cc1 the Potency was inconclusive: 2 µM [quencher, side channel, full curve]. In the case of Cc1ccc(/C([O-])=C(/C(=S)NCc2ccccc2)[n+]2cccc(CO)c2)cc1[N+](=O)[O-], the Potency is reported as “inactive”. For O=[N+]([O-])c1ccc(Sc2ccccc2Cl)nc1, the Potency was inconclusive: 14.1 µM [quencher, side channel, partial curve]. For O=[N+]([O-])c1ccc(N/N=C/c2ccccc2)c(F)c1, the Potency was inconclusive: 11.2 µM [quencher, side channel, partial curve]. COC(=O)c1ccc(NC(=O)c2ccc3nsnc3c2)cc1 was tested, and the Potency was inconclusive: 2.82 µM [quencher, side channel, full curve]. In the case of CCn1c(CNC(=O)c2ccccc2)nnc1SCC(=O)N1CCN(c2ccccc2)CC1, the Potency is reported as inconclusive: 39.8 µM [quencher, side channel, single point]. For C=CCOc1ccccc1CN1CCC(Oc2cc(C(=O)NC3CC3)ccc2OC)CC1, the Potency was “inactive”. For On1onc2c3cc(-c4ccccc4)nc3ccc21, the Potency was inconclusive: 22.4 µM [quencher, side channel, partial curve]. For COc1ccccc1C(CCNS(=O)(=O)c1ccc(C)cc1)c1ccco1 (centres undefined), the Potency was inconclusive: 0.1 µM [fluorescent, side channel, full curve, poor fit]. In the case of O=C(CCN1CCC(c2ccccc2)C1)c1ccccc1 (centres undefined), the Potency is reported as “inactive”. For O=C(Cc1ccccc1)N1CCN(C(=O)c2ccc([N+](=O)[O-])cc2)CC1, the Potency was inconclusive: 8.91 µM [quencher, side channel, partial curve]. For CCc1ccc(N/C(SCc2cccc(F)c2)=C(/C#N)C(=O)NCc2ccco2)cc1, the Potency was “inactive”. With Oc1cccc(/C=N\Nc2nncc(-c3ccccc3)n2)c1 the Potency was inconclusive: 2 µM [quencher, side channel, full curve, poor fit]. With N#Cc1cc([N+](=O)[O-])cnc1Nc1ccccc1 the Potency was inconclusive: 12.6 µM [quencher, side channel, partial curve]. CC(C)c1ccccc1NC(=S)N1CCN(Cc2ccc3c(c2)OCO3)CC1 was tested, and the Potency was “inactive”. Cc1cc(C)n(/N=C/c2ccc(C(C)C)cc2)c(=O)c1C#N was tested, and the Potency was inconclusive: 0.794 µM [fluorescent, side channel, partial curve]. CC(=O)Nc1ccc(NC(=O)c2nc(S(=O)(=O)Cc3ccccc3)ncc2Cl)cc1 was tested, and the Potency was inconclusive: 14.1 µM [quencher, side channel, partial curve].

Reference: PubChem BioAssay AID2675 (National Center for Advancing Translational Sciences (NCATS), 2010)
Potency is read from the fitted curve at half-maximal effect; tags tell the direction and shape of the fitted curve or compound fluorescence and quenching.
